This note sets out measurements from US20250388696A1 (NAVIGO PROTEINS, published 2025).

One assay deals with T1, human serum albumin (human, UniProt P02768 25-609).
T1 construct: also called HSA
Nature of the assay: SPR, HSA immobilised on the chip, pH 7.3, 1:1 Langmuir fit [continued]. The method, then: Recombinant protein A, HSA, MSA or target (either ED-B or Her2) was immobilized on a High Capacity Amine sensor chip (Bruker) after NHS/EDC activation with a Sierra SPR-32 system (Bruker). The chip was equilibrated with SPR running buffer (PBS 0.05%, Tween pH 7.3). Injection of ethanolamine after target immobilization was used to block free NHS groups. To determine the binding of fusion proteins to FAP, the Fc-tagged target was injected with 60 or 30 nM to Protein A coupled spots followed by the injection of fusion proteins.
Binding proteins were applied to the chip in serial dilutions with a flow rate of 30 μl/min. Upon binding, analyte accumulated on the surface increasing the refractive index. This change in the refractive index was measured in real time and plotted as response or resonance units versus time. The association was performed for 120 seconds and the dissociation for 180 seconds. After each run, the chip surface was regenerated with 30 μl regeneration buffer (10 mM glycine pH 2.0 or pH 1.5) and equilibrated with running buffer. Binding studies were carried out using the Sierra SPR-32 system (Bruker); data evaluation was operated via the Sierra Analyser software, provided by the manufacturer, by the use of the Langmuir 1:1 model (RI=0).
(SPR reads the build-up and loss of mass on a sensor chip optically.)

Assay [1] addresses T2, hFAP-Fc (human, UniProt Q12884 26-760, limits assumed).
T2 construct: also called Fc-tagged target (FAP)
T2 sequence (looked up): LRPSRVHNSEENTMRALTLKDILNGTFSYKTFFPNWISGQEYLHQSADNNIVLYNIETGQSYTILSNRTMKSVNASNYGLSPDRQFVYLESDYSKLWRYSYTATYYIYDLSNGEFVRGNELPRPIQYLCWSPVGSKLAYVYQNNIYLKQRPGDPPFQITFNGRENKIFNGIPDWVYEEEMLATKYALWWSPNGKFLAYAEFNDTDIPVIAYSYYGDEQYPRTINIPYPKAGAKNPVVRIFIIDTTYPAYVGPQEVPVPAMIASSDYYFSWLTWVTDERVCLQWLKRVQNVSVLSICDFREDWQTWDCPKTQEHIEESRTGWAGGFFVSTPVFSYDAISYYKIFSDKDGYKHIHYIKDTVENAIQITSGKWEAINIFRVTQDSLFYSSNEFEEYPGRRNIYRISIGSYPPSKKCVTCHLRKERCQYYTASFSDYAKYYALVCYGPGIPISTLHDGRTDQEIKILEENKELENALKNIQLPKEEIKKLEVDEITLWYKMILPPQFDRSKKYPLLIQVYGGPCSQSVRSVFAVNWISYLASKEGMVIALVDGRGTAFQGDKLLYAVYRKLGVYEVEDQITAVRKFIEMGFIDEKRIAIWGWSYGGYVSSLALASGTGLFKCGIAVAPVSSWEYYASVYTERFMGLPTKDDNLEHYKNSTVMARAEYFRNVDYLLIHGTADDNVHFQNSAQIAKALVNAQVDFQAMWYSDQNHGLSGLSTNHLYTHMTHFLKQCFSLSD
Nature of the assay: ELISA on coated hFAP-Fc; 24 h in human serum at 37 C. The method, then: (§1) High binding plates (Greiner, 781061) were immobilized with 2.5 μg/ml hFAP-Fc or 1.2 μg/ml Her2-Fc over night at 4° C. Dilution series of 3 μM to 0.07 pM of fusion proteins with binding specifically to Her2 were incubated in 100% human serum or 100% mouse serum for 24 h at 37° C. Dilution series of 3 µM to 0.2 pM or 1 μM to 0.01 fM of fusion proteins with binding specifically to hFAP were incubated in 100% human serum or 100% mouse serum for 24 h at 37° C. ELISA-plates were washed three times with PBST (PBS+0.1% Tween) and blocked with 3% BSA/0.5% Tween/PBS up to 2 h at room temperature (rt). After preincubation for 0 h or 24 h in the presence of serum the dilution series were incubated on ELISA-plates for up to 1 h at rt. Wells were washed with PBST and incubated with biotinylated anti-ubiquitin-antibody (1:300) for up to 1 h at rt. The binding was visualized with Streptavidin-HRP (1:5.000).
(§2) The fusion proteins comprise the albumin binding domain (referred to as HED) and the targeting moiety.
Background: An ELISA detects its analyte on a solid surface through an enzyme-linked reagent.

The target of assay [2] is T2, hFAP-Fc. Nature of the assay: ELISA on coated hFAP-Fc; 24 h in mouse serum at 37 C. The method, then: as §1, §2
Assay [3] deals with T2, hFAP-Fc. In words: ELISA on coated hFAP-Fc; 0 h in mouse serum. On the procedure:
as §1, §2

Assay [4] has as its target T2, hFAP-Fc. Nature of the assay: ELISA on coated hFAP-Fc; KD 24 h against KD 0 h, mouse serum. The method, then:
as §1, §2

Assay [5] addresses T2, hFAP-Fc. In words: ELISA on coated hFAP-Fc; KD 24 h against KD 0 h, human serum. The method, then:
as §1, §2

Assay [6] deals with T2, hFAP-Fc. In words: ELISA on coated hFAP-Fc; 0 h in human serum. The method, then: as §1, §2
Assay [7] has as its target T3, human fibroblast activation protein (hFAP) expressed on the surface of HEK293-hFAP cells (human, UniProt Q12884 1-760).
T3 construct: whole, on cells; FAP overexpressing HEK293 cell line
T3 sequence (looked up): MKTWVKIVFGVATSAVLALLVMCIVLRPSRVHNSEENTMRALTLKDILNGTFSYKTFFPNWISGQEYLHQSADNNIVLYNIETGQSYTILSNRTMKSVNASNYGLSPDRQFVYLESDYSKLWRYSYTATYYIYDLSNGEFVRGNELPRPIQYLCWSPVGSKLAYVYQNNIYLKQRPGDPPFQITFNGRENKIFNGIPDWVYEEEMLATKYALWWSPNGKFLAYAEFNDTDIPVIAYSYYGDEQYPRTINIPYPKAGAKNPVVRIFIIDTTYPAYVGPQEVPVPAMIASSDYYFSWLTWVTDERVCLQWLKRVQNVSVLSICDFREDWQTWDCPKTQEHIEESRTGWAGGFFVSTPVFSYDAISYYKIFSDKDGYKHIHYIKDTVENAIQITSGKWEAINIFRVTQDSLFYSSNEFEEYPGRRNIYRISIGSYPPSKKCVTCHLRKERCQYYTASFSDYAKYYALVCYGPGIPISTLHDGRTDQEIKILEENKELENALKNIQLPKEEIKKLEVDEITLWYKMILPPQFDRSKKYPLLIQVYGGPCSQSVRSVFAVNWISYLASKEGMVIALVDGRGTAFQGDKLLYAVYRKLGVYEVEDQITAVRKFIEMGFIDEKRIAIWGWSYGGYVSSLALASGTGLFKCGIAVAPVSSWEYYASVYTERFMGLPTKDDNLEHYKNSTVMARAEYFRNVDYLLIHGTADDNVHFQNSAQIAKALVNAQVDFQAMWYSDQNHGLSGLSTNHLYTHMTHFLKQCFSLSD
In words: flow cytometry on HEK293-hFAP cells, 0 h in mouse serum.

The target in assay [8] is T3, human fibroblast activation protein …. In words: flow cytometry on HEK293-hFAP cells, 24 h in mouse serum. Background: In flow cytometry, cells or beads pass a laser one at a time.
Assay [9] shares this target. In words: flow cytometry on HEK293-hFAP cells, fusion protein pre-incubated 0 h in mouse serum (control).
For assay [10] the target is unchanged. In words: flow cytometry, dilution series on HEK293-hFAP cells.
Assay [11] shares this target. Nature of the assay: flow cytometry on HEK293-hFAP cells, fusion protein pre-incubated 24 h in mouse serum at 37 C.

In general, Kd refers to the free concentration of one partner at which half of the binding sites on the other are occupied at equilibrium, for simple one-to-one binding. High values mean lower affinity, low ones higher affinity. A word on the EC50 (read off the curve): it is the midpoint of the concentration-response curve. Higher therefore signals weaker potency.

Sequence of human serum albumin (P02768 25-609 limits assumed): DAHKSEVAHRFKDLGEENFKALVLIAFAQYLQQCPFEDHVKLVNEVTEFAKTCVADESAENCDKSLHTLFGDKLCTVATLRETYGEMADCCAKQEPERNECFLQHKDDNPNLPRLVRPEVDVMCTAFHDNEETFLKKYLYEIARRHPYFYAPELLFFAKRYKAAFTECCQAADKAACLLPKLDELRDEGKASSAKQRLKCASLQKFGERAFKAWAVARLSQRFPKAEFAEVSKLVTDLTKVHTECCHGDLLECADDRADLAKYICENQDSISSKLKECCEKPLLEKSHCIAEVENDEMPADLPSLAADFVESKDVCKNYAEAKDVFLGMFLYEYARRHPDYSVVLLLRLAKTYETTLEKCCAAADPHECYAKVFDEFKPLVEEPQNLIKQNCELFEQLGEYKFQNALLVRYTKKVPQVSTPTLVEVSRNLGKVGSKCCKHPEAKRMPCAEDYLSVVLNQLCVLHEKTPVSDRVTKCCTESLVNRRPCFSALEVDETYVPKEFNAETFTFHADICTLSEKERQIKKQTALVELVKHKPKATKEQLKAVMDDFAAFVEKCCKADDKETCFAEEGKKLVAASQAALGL

B1: 220898 (designed binder)
fusion protein: MQIFVKTLTGKTITLEVEPSDTTENVKAKIQDKEGIPPDQQTLAFVGKQLEDGRTLSDYNIQKESTLWLYLTLRAAMRIFVKTHTGKTITLDVEPSDTIENVKAKIQDKEGIPPDQQRLIWAGKQLEDGRTLSDYNIQEWAILHLVLRLRAALAEAKVLALKELDKYGISNYYKNLIDKAKTIEGVEALKDAILAA
notes: order of parts as in the construct name; also called 206479_c48
B1 came in with a Kd with human serum albumin of 3.4 nM.

B2: 217832 (FAP specific targeting moiety without albumin binding domain) (designed binder)
chain: MQIFVWTRINKLITLEVEPSDTIENVKAKIQDKEGIPPDQQSLYWKGKQLEDGRTLSDYNINIWPNLYLSLRAA
notes: also called CID 217832
For B2, the Kd came out at 0.54 nM with hFAP-Fc [1], 0.71 nM with hFAP-Fc [2], 0.31 nM with hFAP-Fc [3] and 0.35 nM in the assay with hFAP-Fc [6]. Also, the “increase of KD vs target [fold]” value with hFAP-Fc [4] came out at 2.29 fold; in the assay with hFAP-Fc [5] it was 1.56 fold.

B3: 217990 (FAP specific targeting moiety without albumin binding domain) (designed binder)
chain: MQIFVKTLTPEWHIIGKTITLEVEPSDTIENVKAKIQDKEGIPPDQQNLAWAGKQLEDGRTLSDYNIQGGSMLMLKLHLRAA
notes: also called CID 217990
With B3, the Kd with hFAP-Fc [1] was determined as 1.18 nM; with hFAP-Fc [2] it was 1.1 nM; in the assay with hFAP-Fc [3], 0.73 nM; with hFAP-Fc [6], 1.17 nM. Moreover, the “increase of KD vs target [fold]” value in the assay with hFAP-Fc [4] turned out to be 1.51 fold; in the assay with hFAP-Fc [5], 1.01 fold.

B4: fusion protein 218702 (designed binder)
chain: MQIFVKTLTPEWHIIGKTITLEVEPSDTIENVKAKIQDKEGIPPDQQNLAWAGKQLEDGRTLSDYNIQGGSMLMLKLHLRAAGGGGSGGGGSMQIFVKTLTPEWHIIGKTITLEVEPSDTIENVKAKIQDKEGIPPDQQNLAWAGKQLEDGRTLSDYNIQGGSMLMLKLHLRAAGGGGSGGGGSLAEAKVLALKELDKYGISNYYKNLINNAKTVEGVKALKEAIVAAGGGGSGGGGSLAEAKVLALKELDKYGISNYYKNLINNAKTVEGVKALKEAIVAA
Turning to B4, the entries for the “EC50 (read off the curve)” value in assay [7] and in assay [8] were around 0.2 nM and around 0.3 nM, respectively. The Kd turned out to be 1 nM with hFAP-Fc [1]; 0.13 nM with hFAP-Fc [2]; 0.11 nM with hFAP-Fc [3]; 0.19 nM in assay [9]; 0.28 nM in assay [10]; 1.05 nM with hFAP-Fc [6]. In addition, in assay [11], binding was characterised by a dissociation constant (Kd) of 0.27 nM. The “increase of KD vs target [fold]” value with hFAP-Fc [4] is 1.18 fold; with hFAP-Fc [5] it was 0.95 fold.

B5: fusion protein 218700 (designed binder)
chain: MQIFVKTLTPEWHIIGKTITLEVEPSDTIENVKAKIQDKEGIPPDQQNLAWAGKQLEDGRTLSDYNIQGGSMLMLKLHLRAAGGGGSGGGGSMQIFVKTLTPEWHIIGKTITLEVEPSDTIENVKAKIQDKEGIPPDQQNLAWAGKQLEDGRTLSDYNIQGGSMLMLKLHLRAAGGGGSGGGGSLAEAKVLALKELDKYGISNYYKNLINNAKTVEGVKALKEAIVAA
In the case of B5, the Kd came to 0.72 nM with hFAP-Fc [1], 0.12 nM with hFAP-Fc [2], 0.1 nM with hFAP-Fc [3] and 0.55 nM with hFAP-Fc [6]. The “increase of KD vs target [fold]” value with hFAP-Fc [4] is 1.2 fold; in the assay with hFAP-Fc [5], 1.31 fold.
